Measurements reported in the antibiotic and cytotoxicity screens of Wong et al. (2023).
The other results are listed elsewhere or left out.

System: HepG2
Experiment: cytotoxicity call (relative viability < 0.9)
Details: 10 µM

Q: How did the cytotoxicity call turn out when `C[C@H](CO)N1C[C@H](C)[C@H](CN(C)Cc2ccc(C(F)(F)F)cc2)OCCCC[C@H](C)Oc2ccc(NC(=O)NC3CCCCC3)cc2C1=O` was run?
A: inactive

Q: Which cytotoxicity call does the source give for `COc1ccc(NC(=O)Nc2ccc3c(c2)C(=O)N([C@@H](C)CO)C[C@@H](C)[C@@H](CN(C)C(=O)Nc2ccc(F)cc2)OCCCC[C@@H](C)O3)cc1` here?
A: inactive

Q: Which cytotoxicity call does the source give for `CC(C)NC(=O)Nc1ccc2c(c1)C(=O)N([C@H](C)CO)C[C@@H](C)[C@@H](CN(C)S(=O)(=O)c1ccc(F)cc1)O2` here?
A: inactive

Q: For `C[C@H](CO)N1C[C@H](C)[C@H](CN(C)Cc2ccc(C(=O)O)cc2)OCCCC[C@H](C)Oc2ccc(NS(=O)(=O)c3ccc(Cl)cc3)cc2C1=O`, which cytotoxicity call is on record?
A: inactive

Q: How did the cytotoxicity call turn out when `COc1ccc(S(=O)(=O)Nc2ccc3c(c2)C(=O)N([C@@H](C)CO)C[C@@H](C)[C@H](CN(C)Cc2ccc4c(c2)OCO4)OCCCC[C@H](C)O3)cc1` was run?
A: inactive

Q: How did the cytotoxicity call turn out when `Cc1noc(C)c1NC(=O)N(C)C[C@H]1Oc2ccc(NC(=O)CCN3CCOCC3)cc2CC(=O)N([C@@H](C)CO)C[C@H]1C` was run?
A: inactive

Q: How did the cytotoxicity call turn out when `O=C(N[C@@H]1CC=CC[C@H](CC(=O)N(CCO)Cc2ccccc2)C(=O)NCC(c2ccccc2)OC1=O)OCC1c2ccccc2-c2ccccc21` (stereo not given in full) was run?
A: inactive

Q: How did the cytotoxicity call turn out when `C[C@H]1CCCCO[C@H](CN(C)S(=O)(=O)c2cccs2)[C@@H](C)CN([C@@H](C)CO)C(=O)c2cc(NS(=O)(=O)c3ccc(Cl)cc3)ccc2O1` was run?
A: inactive

Q: Which cytotoxicity call does the source give for `C=CC[C@H](CC(=O)N(CCO)Cc1ccccc1)C(=O)NCCOC(=O)[C@H](CC=C)CC(=O)OC(C)(C)C` here?
A: inactive

Q: `C[C@H]1CN([C@@H](C)CO)C(=O)Cc2cc(NS(C)(=O)=O)ccc2O[C@H]1CN(C)S(=O)(=O)c1ccc(F)cc1` was tested. Which cytotoxicity call did it give?
A: inactive

Q: For `COc1ccc(S(=O)(=O)Nc2cccc3c2O[C@@H](CN(C)S(=O)(=O)c2cn(C)cn2)[C@H](C)CN([C@H](C)CO)C3=O)cc1`, which cytotoxicity call is on record?
A: inactive

Q: `C[C@@H]1CN([C@@H](C)CO)C(=O)CCCn2nncc2CO[C@@H]1CN(C)S(=O)(=O)c1cccc(C#N)c1` was tested. Which cytotoxicity call did it give?
A: inactive

Q: Which cytotoxicity call does the source give for `C=CCN1C(=O)[C@]2(O[C@H](CCO)[C@@H]([Si](C)(C)c3ccc(OC)cc3)[C@@H]2C)c2cc(N(C=O)c3ccccc3)ccc21` here?
A: active

Q: How did the cytotoxicity call turn out when `C[C@H](CO)N1C[C@H](C)[C@@H](CN(C)S(=O)(=O)c2cn(C)cn2)Oc2cc(C#Cc3ccc(F)cc3)ccc2S1(=O)=O` was run?
A: inactive

Q: Which cytotoxicity call does the source give for `C[C@@H]1CN([C@H](C)CO)C(=O)c2cc(NC(=O)c3ccncc3)ccc2O[C@@H](C)CCCCO[C@@H]1CN(C)C(=O)C1CCCCC1` here?
A: inactive

Q: Which cytotoxicity call does the source give for `C[C@H](CO)N1C[C@H](C)[C@H](CN(C)S(=O)(=O)c2cccs2)Oc2ccc(NC(=O)Cc3ccccc3)cc2C1=O` here?
A: inactive

Q: For `COC(=O)[C@H](Cc1ccc(-n2cc(C(=O)NO)nn2)cc1)N[C@H](/C=C/C1CC1)[C@@H](O)Cc1ccccc1`, which cytotoxicity call is on record?
A: inactive

Q: With `Cl.c1ccc2c(CC3=NCCN3)cccc2c1` as the compound, how does the cytotoxicity call read?
A: inactive

Q: `O=S(=O)(NCC[C@H]1CC[C@H](NS(=O)(=O)c2cccc(Cl)c2)[C@H](CO)O1)c1cccc(F)c1` was tested. Which cytotoxicity call did it give?
A: inactive

Q: With `C[C@@H]1CN([C@H](C)CO)C(=O)c2cc(NS(C)(=O)=O)ccc2O[C@@H](C)CCCCO[C@@H]1CN(C)S(C)(=O)=O` as the compound, how does the cytotoxicity call read?
A: inactive

Q: For `C[C@H]1CN([C@@H](C)CO)C(=O)c2cc(NC(=O)Cc3cn(C)c4ccccc34)ccc2O[C@H]1CN(C)C(=O)Nc1cccc2ccccc12`, which cytotoxicity call is on record?
A: inactive

Q: How did the cytotoxicity call turn out when `C[C@@H]1CCCCO[C@@H](CN(C)C(=O)Nc2cccc3ccccc23)[C@H](C)CN([C@@H](C)CO)C(=O)c2cc(NC(=O)CCCN(C)C)ccc2O1` was run?
A: inactive

Q: How did the cytotoxicity call turn out when `COc1cccc(NC(=O)C[C@H]2CC[C@@H]3[C@H](COc4ccc(NC(=O)C5CCOCC5)cc4C(=O)N3C)O2)c1` was run?
A: inactive

Q: With `Cc1ccc(S(=O)(=O)N[C@@H](Cc2ccccc2)C(=O)NCCn2cc(-c3ccc(C(=O)NO)s3)nn2)cc1` as the compound, how does the cytotoxicity call read?
A: inactive

Q: `CC[N+](CC)(CC)CCOc1ccc(/C=C/c2ccccc2)cc1` was tested. Which cytotoxicity call did it give?
A: inactive

Q: Which cytotoxicity call does the source give for `COc1ccccc1CNC(=O)C[C@H]1C[C@@H]2c3cc(NC(=O)c4ccc5c(c4)OCO5)ccc3O[C@@H]2[C@H](CO)O1` here?
A: inactive

Q: For `Cc1ccc(S(=O)(=O)N(C)C[C@H]2Oc3c(NS(=O)(=O)c4cn(C)cn4)cccc3C(=O)N([C@@H](C)CO)C[C@H]2C)cc1`, which cytotoxicity call is on record?
A: inactive

Q: How did the cytotoxicity call turn out when `CS(=O)(=O)CC(=O)N1C[C@H]2COC[C@@]2(COc2ccccn2)C1` was run?
A: inactive

Q: For `C[C@H]1CN([C@@H](C)CO)C(=O)Cc2cc(NS(=O)(=O)c3cn(C)cn3)ccc2O[C@H]1CN(C)C(=O)Nc1ccc2c(c1)OCO2`, which cytotoxicity call is on record?
A: inactive

Q: For `C[C@@H]1CN([C@@H](C)CO)S(=O)(=O)c2ccc(C#Cc3ccncc3)cc2O[C@H]1CN(C)C(=O)C1CCC1`, which cytotoxicity call is on record?
A: active

Q: How did the cytotoxicity call turn out when `Cc1ccc(S(=O)(=O)N[C@@H]2CC[C@@H](CC(=O)NCc3ccc(Cl)c(Cl)c3)O[C@H]2CO)cc1` was run?
A: inactive

Q: `COc1cccc(CNC(=O)C[C@H]2C=C[C@H](NC(=O)C3CCOCC3)[C@H](CO)O2)c1` was tested. Which cytotoxicity call did it give?
A: inactive

Q: For `CCOC(=O)Nc1nc2ccccc2[nH]1`, which cytotoxicity call is on record?
A: inactive

Q: With `Cc1ccc(S(=O)(=O)Nc2ccc3c(c2)C(=O)N([C@H](C)CO)C[C@@H](C)[C@@H](CN(C)Cc2ccc(C(F)(F)F)cc2)OCCCC[C@@H](C)O3)cc1` as the compound, how does the cytotoxicity call read?
A: inactive

Q: With `C[C@H]1CN([C@@H](C)CO)C(=O)c2cccc(NS(=O)(=O)c3cccs3)c2O[C@@H]1CN(C)Cc1ccc(-c2ccccc2)cc1` as the compound, how does the cytotoxicity call read?
A: inactive

Q: How did the cytotoxicity call turn out when `COc1ccc(S(=O)(=O)N(C)C[C@H]2Oc3ccc(NS(=O)(=O)c4ccccc4)cc3CC(=O)N([C@H](C)CO)C[C@@H]2C)cc1` was run?
A: inactive

Q: `C[C@@H]1CN([C@H](C)CO)C(=O)Cc2cc(NS(C)(=O)=O)ccc2O[C@H]1CN(C)C(=O)Nc1ccc(C(F)(F)F)cc1` was tested. Which cytotoxicity call did it give?
A: inactive

Q: How did the cytotoxicity call turn out when `COc1ccc(S(=O)(=O)Nc2ccc3c(c2)C(=O)N([C@H](C)CO)C[C@@H](C)[C@H](CN(C)S(=O)(=O)c2cn(C)cn2)O3)cc1` was run?
A: inactive

Q: Which cytotoxicity call does the source give for `C[C@H](CO)N1C[C@H](C)[C@H](CN(C)CC2CC2)Oc2ccc(NC(=O)Cn3cnnn3)cc2CC1=O` here?
A: inactive

Q: `CCCN(C)C[C@H]1OCCCC[C@H](C)Oc2ccc(NC(=O)NC3CCCCC3)cc2C(=O)N([C@@H](C)CO)C[C@H]1C` was tested. Which cytotoxicity call did it give?
A: inactive
